Assay results from PMC4336329 (PLoS ONE, 2015).
The campaign covered roughly 310,000 compounds. About 2,200 (0.71%) showed an effect of 50% or more. The effect is printed as a negative number. The list shows a part of the results.

target: human ether-à-go-go-related gene (hERG) potassium channel (human, UniProt Q12809); assay: primary screen, population patch clamp on CHO cells stably expressing hERG
Sequence (Q12809 whole entry, looked up): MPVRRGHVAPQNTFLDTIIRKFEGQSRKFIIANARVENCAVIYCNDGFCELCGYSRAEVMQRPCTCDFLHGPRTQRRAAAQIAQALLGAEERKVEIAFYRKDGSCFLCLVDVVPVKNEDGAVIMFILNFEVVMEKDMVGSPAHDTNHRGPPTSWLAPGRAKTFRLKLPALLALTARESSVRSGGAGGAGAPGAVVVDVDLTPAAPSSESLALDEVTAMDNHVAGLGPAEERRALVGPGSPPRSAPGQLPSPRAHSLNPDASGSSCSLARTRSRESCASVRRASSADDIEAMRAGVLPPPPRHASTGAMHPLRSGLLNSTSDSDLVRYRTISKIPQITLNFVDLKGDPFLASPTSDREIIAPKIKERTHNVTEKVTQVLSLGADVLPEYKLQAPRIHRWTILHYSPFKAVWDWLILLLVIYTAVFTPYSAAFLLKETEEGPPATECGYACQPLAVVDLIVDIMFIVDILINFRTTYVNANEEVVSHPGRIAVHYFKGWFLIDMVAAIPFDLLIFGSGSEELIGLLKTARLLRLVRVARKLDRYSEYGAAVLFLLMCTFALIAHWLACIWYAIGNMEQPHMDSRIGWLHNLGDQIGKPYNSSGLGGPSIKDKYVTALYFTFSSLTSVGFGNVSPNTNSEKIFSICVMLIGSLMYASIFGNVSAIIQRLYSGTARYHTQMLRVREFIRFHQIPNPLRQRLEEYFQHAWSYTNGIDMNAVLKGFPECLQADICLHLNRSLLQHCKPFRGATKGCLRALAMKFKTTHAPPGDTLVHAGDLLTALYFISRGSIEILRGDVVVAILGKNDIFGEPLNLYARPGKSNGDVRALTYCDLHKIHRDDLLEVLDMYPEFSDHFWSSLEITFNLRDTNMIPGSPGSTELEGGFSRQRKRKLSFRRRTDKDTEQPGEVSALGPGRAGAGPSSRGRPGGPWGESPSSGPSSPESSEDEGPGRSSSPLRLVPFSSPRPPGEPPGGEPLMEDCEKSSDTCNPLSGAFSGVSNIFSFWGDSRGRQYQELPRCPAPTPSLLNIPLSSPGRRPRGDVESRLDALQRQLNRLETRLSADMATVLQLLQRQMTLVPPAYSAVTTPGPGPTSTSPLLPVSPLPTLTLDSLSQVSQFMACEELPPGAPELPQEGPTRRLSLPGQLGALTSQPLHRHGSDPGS

Compound | hERG current change (%, negative = inhibition) at 1uM
CCOC(=O)N1CCC(Nc2c(NCCCN(CC)CC)c(=O)c2=O)CC1 | 13.3%
C#CCSc1nc(-c2ccccc2)cc(C(F)(F)F)c1C#N | 4.87%
COc1ccc(/C=C/C(=O)NC(=S)Nc2ccc(S(N)(=O)=O)cc2)cc1 | 8.68%
CCCCn1c(O)c(N=Nc2ccccc2O)c2ccccc21 | 11.4%
O=C(NC12CC3CC(CC(C3)C1)C2)N1CCN(C(=O)c2ccco2)CC1 | 8.18%
COc1ccc(S(=O)(=O)CCC(=O)NC2CCCCC2)cc1 | 13.2%
O=C(NCCCN1CCOCC1)c1ccc2c(=O)n(Cc3cccc(Br)c3)c(=S)[nH]c2c1 | 11.3%
CCOC(=O)c1ccc(NC(=O)CCc2nnc3ccc(N4CCCC4)nn23)cc1 | 3.89%
COc1ccccc1-n1cnc(N)c1C(=O)c1ccccc1 | 3.06%
COc1cccc(NC(=O)c2ccccc2-c2nc(-c3ccc(Cl)cc3)no2)c1 | 1.5%
Cc1ccc(O)c(NC(=O)CSc2n[nH]c(-c3ccccc3)n2)c1 | -11.7%
CCCCOc1ccc(C(=O)NCC(=O)NC2CCCCC2)cc1 | 12%
CC1CN(/C=C/C=O)C(C)CC1OC(=O)c1ccccc1 (stereo not shown) | 11.3%
CCC(=O)Nc1nnc(SCC(=O)NCC2CCCO2)s1 (stereo not shown) | 7.2%
COc1ccc(CCN2CNc3c(c(=O)n(C)c(=O)n3C)C2)cc1 | -6.58%
COc1ccc(CCn2c(-c3ccco3)nc3ccccc3c2=O)cc1OC | -14.3%
CCNC(=O)CC1C(=O)N(C)C(=S)N1NC(=O)c1ccc(Cl)cc1 (stereo not shown) | -10.1%
O=C(CSc1nc(C(F)(F)F)cc(=O)[nH]1)NCC1CCCO1 (stereo not shown) | 16.8%
O=c1c2ccccc2nc2sc3ccccc3n12 | 14.7%
CC1CCN(C(C(=O)NC2CCCCC2)c2cc3c(cc2[N+](=O)[O-])OCO3)CC1 (stereo not shown) | 4.21%
CCCCOc1cccc(C(=O)NC(=S)Nc2cccc(C(F)(F)F)c2)c1 | 11.9%
Cc1ccc(S(=O)(=O)CCC(=O)Oc2ccc(-c3nnco3)cc2)cc1 | 8.72%
O=C1CNC(=S)N1c1nc2ccccc2s1 | 18.3%

Compound | hERG current change (%, negative = inhibition) at 1uM
CC(=O)Nc1ccc(S(=O)(=O)N2CCC(C(=O)c3ccc(Cl)cc3)CC2)cc1 | 9.25%
O=C1NCCc2c1[nH]c1c(Cl)ccc(Cl)c21 | 1.54%
Cc1cccc(/C=C2/Sc3ccc(C(=O)NCCCN4CCOCC4)cc3NC2=O)c1 | 11.7%
COc1cc(OC)cc(-c2ncc3ccccn23)c1.O=C(O)C(=O)O | 6.57%
CCC(=NCc1ccco1)c1c(O)n(-c2ccc(C)cc2)c(=O)[nH]c1=O | -1.7%
CCn1c(=O)c2c(nc(SCC(=O)N3CCC(C)CC3)n2C)n(C)c1=O | 10.3%
CCC(C)Nc1nc(C)nc2c1oc1ccccc12.Cl (stereo not shown) | 8.23%
Cc1ccc(NC(=S)NCC2CCCO2)c(OC(F)F)c1 (stereo not shown) | 11.4%
O=C(COc1cccc([N+](=O)[O-])c1)NN1C(=O)c2ccccc2C1=O | 16.8%
Cc1ccc(-c2cn(S(=O)(=O)c3ccc(C)cc3)nc2N)cc1 | 6.87%
CCOC(=O)c1[nH]c(C)c(C(=O)OC(C)C(=O)Nc2ncc(Cl)cc2Cl)c1C (stereo not shown) | 3.74%
CC(C(Sc1ccccc1N)c1ccccc1)[N+](=O)[O-] (stereo not shown) | 9.14%
COc1c(C=O)cc2c3c1CCCN3CCC2 | 18.6%
Cc1ccc(-c2c[nH]c(=S)n2-c2ccccc2)cc1 | 5.11%
Cl.NC(=NCc1ccccc1)NC(=O)c1nc(Cl)c(N)nc1N | -26%
COc1cccc(-c2csc(NC3OC(=O)c4c3ccc(OC)c4OC)n2)c1 (stereo not shown) | 9.78%
Cc1ccc(F)c(Cn2cnc3c(cnn3C(C)(C)C)c2=O)c1Cl | 11.5%
O=C(N/N=C/c1cc(Br)ccc1O)C(c1ccncc1)N1CCOCC1 (stereo not shown) | 5.53%
COCCNC(=O)[C@@H]1CCCN1C(=O)C1CCN(S(=O)(=O)c2ccc(C)cc2)CC1 | 15.5%
Cn1c(=O)n(CC(=O)N2CCN(c3nnc(-c4ccccc4)c4ccccc34)CC2)c2ccccc21 | -12.7%
COc1ccc2[nH]c(=O)c(CN(C(=O)COc3ccccc3)C(C)C)cc2c1 | 4.57%
Nc1nonc1-n1nnc(C(=O)N/N=C/c2cccs2)c1-c1ccc2c(c1)OCO2 | 2.97%
CC(C)(C)C1CC=C2C(C#N)=C(N)C(C#N)(C#N)C(c3cccs3)C2C1 (stereo not shown) | 11.1%
